Hit rate of the full screen: of about 52,000 compounds, about 4,300 (8.3%) were called active. No stated cut-off is given here; in the data, active means survival mostly below about 52% (no sharp cut-off); inactive means mostly above about 56%. This is one part of the list.

For the test, the system named is DeltatarO mutant. Description: S. aureus survival, RN4220 and DeltatarO strains – OD600, teichoic acid synthesis inhibitors, primary screen (AID 463173). To be noted: S. aureus RN4220 wild type/DeltatarO growth, OD600, 18 h, hits give low values, screened at 18.75 µg/mL (by protocol).
For the molecule `COc1ccccc1CNC(=O)CCc1c(C)nn(-c2ccc(N3CCCC3)nn2)c1C`, the survival was inactive: 69%.

On to `Cc1cc(C)cc(NC(=O)C2CCN(S(=O)(=O)c3c(C)noc3/C=C/c3ccco3)CC2)c1`, for which the survival is inactive: 73%.

`Cc1ccn2c(Nc3c(C)cccc3C)c(-c3ccc(Cl)s3)nc2c1`: the survival was active: 37%.

On to `CC1SC(c2ccccc2)N(Cc2ccccc2)C1=O` (stereo not drawn), for which the survival was inactive: 77%.

Regarding `Cc1ccc2scc(N3CCN(c4cccc(C(F)(F)F)c4)CC3)c(=O)c2c1`, the survival was inactive: 77%.

Turning to `CCCCN(CCCC)C1=C(C(=O)c2ccccc2)N(CC)S(=O)(=O)c2ccccc21`, the survival is active: 60%.

For the molecule `COC(=O)CN1C(=O)C(C)(C)c2cc(S(=O)(=O)NCc3ccc(Cl)cc3)ccc21`, the survival is inactive: 84%.

As for `CCOc1ccc(-n2c(Cc3ccccc3)nnc2SCc2nc(-c3cccs3)no2)cc1`, the survival was inactive: 54%.

With `Cc1ccc(-c2nc(-c3cc4cccc(OCc5cccc(F)c5)c4oc3=O)no2)cc1`, the survival was inactive: 46%.

As for `COc1cccc(NC(=O)c2sc3nc(C)c(C(=O)Nc4ccc(C)cc4C)c(-c4cccs4)c3c2N)c1`, the survival is inactive: 122%.

Regarding `Cn1c(=N)n(CC(=O)c2ccc(-c3ccccc3)cc2)c2ccccc21`, the survival was inactive: 106%.

`COc1ccc(CC(=O)Nc2cc(-c3nc4cccnc4s3)ccc2C)cc1`: the survival was active: 41%.

In the case of `CCOc1ccc(-n2c(=O)c3c4c(sc3n(CC(=O)NC(C)CC)c2=O)CCC4)cc1` (stereo not drawn), the survival is inactive: 142%.

For `O=S(=O)(c1ccc(Cl)cc1)c1nnn2c1nc(NCc1cccs1)c1sccc12`, the survival was inactive: 43%.

Regarding `CCC(=O)Nc1ccc2nc(SCc3ccccc3)sc2c1`, the survival was inactive: 76%.

For `COc1ccc(C)cc1NC(=O)CSc1nc(=O)[nH]c2c1CCCC2`, the survival was inactive: 120%.

Take `CCC(CC)C(=O)N1CCc2cc(OC)c(OC)cc2C1COc1ccc(C(=O)OC)cc1` (stereo not drawn): the survival was inactive: 73%.

On to `CCCn1c(=O)c(C(=O)Nc2nccs2)c(O)c2ccccc21`, for which the survival is inactive: 99%.

Regarding `O=C(CSc1cn(CCNC(=O)c2ccccc2F)c2ccccc12)Nc1ccc(F)cc1`, the survival was inactive: 65%.

Take `COc1cccc(N2C(=O)CSC23C(=O)N(CC(=O)Nc2cccc(Cl)c2)c2ccccc23)c1` (stereo not drawn): the survival is inactive: 101%.

For `COc1cc(CN(C(=O)COc2ccccc2Cl)c2ccccn2)cc(OC)c1OC`, the survival is inactive: 72%.

In the case of `CCn1c(C)c(C)c2cc(C(=O)N3CCN(c4cccc(C)c4C)CC3)ccc21`, the survival was inactive: 94%.

As for `CC1(C)OC(c2ccncc2)OC1(C)C`, the survival was inactive: 93%.

As to `O=C(c1ccc2c(c1)CCCC2)N1CCN(c2nc3ccc(F)cc3s2)CC1`, the survival was inactive: 75%.

Turning to `CCc1ccc(S(=O)(=O)NCc2nc3cccnc3n2Cc2ccccc2Cl)cc1`, the survival was inactive: 94%.

Consider `CCn1c(COc2ccc(C)cc2)nnc1SCC(=O)N1CCCc2ccccc21`, for which the survival was inactive: 101%.

For `CCCOc1ccc(CNC(=O)Cn2cc3c(n2)-c2c(oc(C(=O)N4CCOCC4)c2C)CC3)cc1`, the survival is inactive: 76%.

In the case of `COc1cccc(-n2c(SCC(=O)N3CCCc4ccccc43)nc3c([nH]c4ccccc43)c2=O)c1`, the survival is inactive: 102%.

Consider `O=C(CCSCc1cccc(F)c1)NCc1ccccc1`, for which the survival is inactive: 68%.

Take `CCOc1ccc2nc(SCC(=O)N(C)C3CCCCC3)c(C#N)cc2c1`: the survival was inactive: 89%.

`COc1ccc(Cl)cc1NC(=O)Cn1c(=O)n(CCCC(=O)NCCc2ccc(OC)c(OC)c2)c(=O)c2ccccc21`: the survival is inactive: 71%.

`COc1ccc(-c2nnc(Nc3ccc(OC)c(C(N)=O)c3)c3ccccc23)cc1`: the survival is active: 41%.

Take `CCS(=O)(=O)c1nc(S(=O)(=O)c2ccc(C)cc2)c(NC(C)c2ccccc2)s1` (stereo not drawn): the survival is inactive: 103%.

As to `CCOc1ccc(-n2cc(-c3ccccc3)c3c(N4CCC(C)CC4)ncnc32)cc1`, the survival was inactive: 90%.

In the case of `Cc1ccc(S(=O)(=O)c2nc(-c3ccc(F)cc3)oc2SCC(=O)c2ccccc2)cc1`, the survival is active: 47%.

Regarding `CCc1ccc2oc(-c3cccc(NC(=O)C(C)(C)Oc4ccc(Br)cc4)c3)nc2c1`, the survival was active: 36%.

On to `Cc1cc(C)cc(Nc2ncnc3onc(-c4ccc(F)cc4)c23)c1`, for which the survival is inactive: 84%.

For the molecule `O=C(NCc1ccccc1)NC1(C(=O)NCC2CCCO2)CCCCC1` (stereo not drawn), the survival is inactive: 70%.

Consider `Cc1ccc(Nc2c(-c3ccc(C)cc3)nc3ccc(C)cn23)cc1`, for which the survival is inactive: 117%.

For `CCc1ccccc1NC(=O)N1CCc2cc(OC)c(OC)cc2C1CC(=O)OC` (stereo not drawn), the survival is inactive: 117%.

On to `COC(=O)C1=NNC2C(=O)N(c3cc(C)cc(C)c3)C(=O)C12` (stereo not drawn), for which the survival is inactive: 69%.

With `Cc1ccc(C)c(Nc2nc3c(S(=O)(=O)c4ccc(Br)cc4)nnn3c3ccsc23)c1`, the survival is inactive: 52%.

`Cc1ccc(NC(=O)Cn2c(=O)n(CCCS(=O)(=O)C3CCCCC3)c(=O)c3ccccc32)cc1F`: the survival is inactive: 83%.

For `CCOc1ccc(CNCc2c(C(=O)O)n(Cc3ccc(OC)cc3)c3ccccc23)cc1`, the survival was inactive: 82%.

On to `Cc1ccc(N2CC(c3nnc(Cc4ccccc4Cl)o3)CC2=O)cc1` (stereo not drawn), for which the survival is inactive: 70%.

For `CNC(=O)Nc1ccc2nc(C)sc2c1`, the survival is inactive: 84%.

On to `COc1ccc(-c2nc3c(C#N)c[nH]n3c2NC2CCCC2)cc1`, for which the survival was inactive: 56%.

With `COc1ccccc1Cc1nc2ccccc2nc1SCC(=O)Nc1ccccc1C(F)(F)F`, the survival was inactive: 83%.

`COc1ccc(S(=O)(=O)n2nc(-c3ccco3)nc2NCc2ccc(OC)c(OC)c2)cc1`: the survival was inactive: 55%.

Take `C/C=C/NC(=O)c1nc2c(nnn2Cc2ccc(C)cc2)c(=O)[nH]1`: the survival was inactive: 98%.

For the molecule `Cn1c(=O)c2c(-c3ccccc3Cl)n(Cc3ccc(Cl)cc3)cc2n(C)c1=O`, the survival is inactive: 60%.

`Cc1cccc(N2CCN(C(=O)CCC(=O)NNc3nc4ccccc4c4nc(C)nn34)CC2C)c1` (stereo not drawn): the survival was inactive: 72%.

Turning to `CC1NC(=O)NC2NC(=O)NC(C)C12` (stereo not drawn), the survival is inactive: 112%.

With `CCc1ccccc1NC(=O)CN1C(=O)COc2ccc(S(=O)(=O)Nc3ccccc3)cc21`, the survival is inactive: 72%.

As to `COc1ccccc1CNS(=O)(=O)c1ccc2c(c1)NC(=O)CC(=O)N2`, the survival was inactive: 89%.

`Cc1ccc(-n2nc(C)c3c(C(=O)NCc4ccccc4)cc(C4CC4)nc32)cc1`: the survival was inactive: 115%.

As to `COc1ccccc1Nc1nn2c(=O)c3ccc(C(=O)N4CCCC(C)C4)cc3nc2s1` (stereo not drawn), the survival is inactive: 61%.

`Cc1ccc(S(=O)(=O)NCc2nc(-c3cccc(C)c3)no2)cc1`: the survival was inactive: 100%.

With `COc1ccc(C2CC(=O)N(Cc3cccc(F)c3)c3ccccc3S2)cc1` (stereo not drawn), the survival was active: 47%.

In the case of `COc1ccc(Nc2nc(N)c3cc(OC)c(OC)cc3n2)cc1`, the survival is inactive: 87%.

For `CC1CCc2c(sc(NC(=O)C3c4ccccc4Oc4ccccc43)c2C(=O)OC(C)C)C1` (stereo not drawn), the survival was active: 47%.

As for `CCOC(=O)c1scc(-c2ccccc2)c1S(=O)(=O)Nc1cc(Cl)c(OC)cc1OC`, the survival was inactive: 88%.

Consider `NS(=O)(=O)c1ccc(NC(=S)NC(=O)c2cccnc2)cc1`, for which the survival was inactive: 91%.

In the case of `COc1cccc(CNC(=O)c2nn(-c3ccc(C)cc3)c(=O)c3c2c2ccccc2n3C)c1`, the survival was inactive: 120%.

For `COC(=O)c1ccc(CSc2nc3c([nH]c4ccccc43)c(=O)n2-c2ccc(OC)cc2)o1`, the survival is inactive: 115%.

As for `COc1ccc(CNC(=O)c2c3c(nc4ccccc24)C(=O)N(C2CCCCC2)C3)cc1`, the survival was inactive: 83%.

Regarding `CCOC(=O)c1oc2ccc(S(=O)(=O)n3nc(-c4ccc(Br)cc4)cc3N)cc2c1C`, the survival was inactive: 78%.

As to `O=C(Cc1ccccc1)NCCc1csc2nc(-c3ccc(Cl)cc3)nn12`, the survival was inactive: 71%.

Turning to `O=C(Nc1cc(C(F)(F)F)ccc1Cl)c1cc(-c2ccc3c(c2)OCCO3)on1`, the survival was inactive: 116%.

For `COC(=O)c1cccnc1-n1c(=O)c2cccnc2n(CC(=O)Nc2ccc(C)cc2C)c1=O`, the survival was inactive: 81%.

With `O=C1S/C(=C/c2ccc3c(c2)OCO3)C(=O)N1CN1CCCCC1`, the survival was inactive: 80%.

For the molecule `Cc1ccc2c(c1)N(C(=O)CCC(=O)NCc1ccccc1Cl)CC(C)O2` (stereo not drawn), the survival is inactive: 68%.

Consider `CNC(=S)NC1CC2CCCC(C1)N2Cc1ccco1` (stereo not drawn), for which the survival was inactive: 80%.

Consider `COc1ccc(NC(=O)CSc2nnc(NC(=O)Nc3ccccc3)s2)cc1OC`, for which the survival is inactive: 86%.

On to `CC(NC(=O)Cn1c(=O)oc2cc(S(=O)(=O)NCc3ccccc3)ccc21)c1ccccc1` (stereo not drawn), for which the survival is inactive: 78%.

As for `Cc1ccccc1Nc1nc(-c2cccc(Cl)c2)c2c(n1)-c1ccccc1OC2`, the survival was inactive: 62%.

Regarding `CC(=O)c1ccc(NC(=O)COc2ccccc2-c2nc(-c3cccc(C)c3)no2)cc1`, the survival is inactive: 57%.

On to `COCCCNC(=O)c1ccc2c(c1)N(Cc1ccccc1)C(=O)c1ccccc1S2`, for which the survival was inactive: 64%.

`O=C(CSc1nc(=O)n(CCN2CCOCC2)c2c1CCC2)Nc1ccccc1`: the survival is inactive: 75%.

As for `COc1ccccc1CNC(=O)CCCn1c(=O)c2ccccc2n(CC(=O)Nc2c(C)cc(C)cc2C)c1=O`, the survival is inactive: 166%.

On to `CCn1cc(C(=O)NCc2ccccc2Cl)c(=O)c2cc(S(=O)(=O)N3CCc4ccccc4C3)ccc21`, for which the survival is inactive: 74%.

With `CCCC(=O)Nc1cc(C)c(NC(=O)C23CC4CC(CC(C4)C2)C3)cn1`, the survival was inactive: 85%.

For the molecule `Cc1ccccc1C(=O)NC1(C(F)(F)F)C(=O)Nc2c1c(=O)[nH]c(=O)n2-c1ccc(F)cc1` (stereo not drawn), the survival is inactive: 144%.

Turning to `COc1cccc(Cn2c(CNC(=O)c3cc([N+](=O)[O-])ccc3Cl)nc3cccnc32)c1`, the survival was inactive: 117%.

With `CN(C)/C=C(\C#N)c1nc2ccccc2[nH]1`, the survival is inactive: 73%.

For `CCN(Cc1ccccc1)Cc1c(O)ccc2c(=O)c(-c3ccc(Cl)cc3Cl)coc12`, the survival is inactive: 68%.

In the case of `Cc1noc(/C=C/c2cccs2)c1S(=O)(=O)N1CCC(C(=O)NCc2ccccc2Cl)CC1`, the survival is inactive: 82%.

As for `CCOCCCNc1ncnc2onc(C)c12`, the survival is inactive: 79%.

Source of the values: PubChem BioAssay AID463173 (ICCB-Longwood Screening Facility, Harvard Medical School, 2010).
